Out of some 150,000 compounds screened, about 540 (0.36%) showed an effect of 50% or more. Some of the results follow.
System: Plasmodium falciparum
Assay: Primary screen in NF54 nanoGlo assay, in single point, at 2uM, 72h; a lower Z score goes with more inhibition
Type: functional, Erythrocyte
Details: timepoint 72 hour

Compared with `C[C@@H](C1CC1)n1cc(NC(=O)N2CCC(c3ccn(C)n3)CC2)cn1`, `Cn1ccc(NC(=O)CN2CCC3(CCC(=O)N(C4CCCC4)C3)CC2)n1` is higher in “% Inhibition” value: 0% for the first, 2% for the second.

Going from `Cc1cc(Br)cnc1-c1noc([C@@H](C)c2cnn(C)c2)n1` to `Cc1ccc2ncc(-c3noc([C@H]4CCOC4)n3)n2c1`, the “% Inhibition” value falls from -11% to -15%.

Compared with `O=C1CCCN1CCc1nc(Cc2cccs2)no1`, `COc1ccc(C(=O)N2CCC3(CCC(=O)N(Cc4ccccn4)C3)CC2)o1` is higher in “% Inhibition” value: -13% for the first, -7% for the second.

First: CC(=O)Nc1c(C)ccc(NC(=O)c2cnc(C3CC3)s2)c1C
Second: Cc1cc(C)c(N2CC[C@H](Nc3cnn(CC(=O)NCCO)c3)C2=O)c(C)c1
The “% Inhibition” value of the first is lower: -14% for the first, -12% for the second.

Compared with `Cc1ccc(CNC(=O)[C@H]2CCCN(c3nc4c(s3)c(C)nn4-c3ccc(C)cc3)C2)cc1`, `Cc1ccc(CNC(=O)[C@]2(C)Cn3cnc(C(=O)NCc4ccco4)c3C(=O)N2C2CC2)cc1` is lower in “% Inhibition” value: 7% for the first, -24% for the second.

`CC(c1nc(C2CC2)no1)N1CCC(N(C)C(=O)OC(C)(C)C)C1` (centres undefined) and `COc1ccccc1CNC(=O)CN1C[C@@H]2CC[C@H]1CN(C(=O)N(C)C)C2` are the same in “% Inhibition” value: -6% for the first, -6% for the second.

Going from `C[C@@H](c1nccs1)N(C)C(=O)CCc1c[nH]c2ccccc12` to `CC(C)C[C@H](NC(=O)Nc1ccccc1)c1nnc2ccccn12`, the “% Inhibition” value falls from 1% to 0%.

First: COc1cc(NC2CCN(C(=O)CCc3c(C)nn(C)c3C)CC2)cc(OC)c1
Second: O=C(CCc1cncc(F)c1)N1CCN(C2CC2)CC1
The “% Inhibition” value of the first is lower: -9% for the first, -6% for the second.

Going from `Cc1ccsc1CN(C)Cc1cc(C#CCO)cs1` to `Cc1ccsc1CCNC(=O)N1CCNC(=O)C1`, the “% Inhibition” value falls from 6% to -11%.

First: Cc1ccc(N(C)Cc2cnn(-c3ccccc3)c2)nn1
Second: CCCN(CC(=O)N(Cc1ccccc1)Cc1ccc(C)o1)C(=O)c1ccco1
The “% Inhibition” value of the first is lower: -7% for the first, 26% for the second.

Going from `O=C(CCc1cc(O)no1)ON1C(=O)CCC1=O` to `Cc1cc(C(=O)CN2C(=O)N[C@]3(CCOC3)C2=O)c(C)[nH]1`, the “% Inhibition” value rises from -16% to -2%.

First: Cc1cc(C#N)nc(N2CCN(C(=O)c3cscn3)[C@@H](C)C2)n1
Second: Cn1ncc2c(N)nc(N3CCCN(S(C)(=O)=O)CC3)nc21
The “% Inhibition” value of the first is higher: -3% for the first, -11% for the second.

Going from `COc1ccc(CCN(Cc2nc(C(=O)N3CCN(c4ccccc4C)CC3)cs2)Cc2ccccc2F)cc1OC` to `Cc1ccccc1OCCNC(=O)c1ccc(CN2CCOCC2)cc1`, the “% Inhibition” value falls from 0% to -5%.

Going from `CC(C)(C)c1ccc(NC(=O)N2CCCN(CC(F)F)CC2)nn1` to `Cc1ccc(C(=O)NC[C@@H]2CCCN3CCCC[C@H]23)n1C(F)F`, the “% Inhibition” value falls from 2% to -6%.

Going from `O=C(Nc1cc(F)ccc1Cl)N1C[C@H]2C[C@@H](C1)[C@@H]1CCCC(=O)N1C2` to `O=C(Cc1c(F)cccc1Cl)N1CCc2n[nH]c(=O)n2CC1`, the “% Inhibition” value rises from 0% to 7%.

Compared with `O[C@@H](Cn1nnc2c1CCCC2)c1cccc(Br)c1`, `O=C(NC(Cc1ccncc1)[C@H]1C[C@@H](O)C1)c1csc2c1CCCC2` (some centres undefined) is higher in “% Inhibition” value: -6% for the first, -2% for the second.

First: CCCCN(Cc1cccn1Cc1ccc(Br)cc1)C(=O)CN(CC(C)C)C(=O)Nc1ccccc1CC
Second: Cc1ccc(N(C(=O)c2cccc(Br)c2)C2(C(=O)Nc3c(C)cccc3C)CCCC2)cc1
The “% Inhibition” value of the first is lower: -6% for the first, 7% for the second.

Going from `Cc1cccc2cc(C(=O)N[C@H]3CC[C@@H](N4CCN(C)CC4)CC3)sc12` to `N#Cc1c(F)cccc1N1CCC(CC(=O)N2CCCC2)CC1`, the “% Inhibition” value rises from -13% to -6%.

Going from `OCc1nc(NCc2ccc3c(c2)OCCO3)ccc1Cl` to `COc1nc(N2CCN(c3ccc(Cl)cc3)CC2)ncc1C(=O)NCCN1CCOCC1`, the “% Inhibition” value falls from -4% to -11%.

First: CCn1nc(C)c(CCN(C)c2ccc(C(=O)O)cc2NS(=O)(=O)c2c(C)cc(C)cc2C)c1C
Second: CC[C@H](C)NC(=O)CN1CCN(C(=O)c2c(O)nc3ccccc3c2C)CC1
The “% Inhibition” value of the first is lower: -11% for the first, 1% for the second.

Compared with `Cc1ccc(NC[C@H]2CCN(Cc3nc(C)c(C)o3)C2)nc1`, `CC(C)(O)C#Cc1cccc(C(=O)NC[C@H]2CCN(Cc3ccccc3F)C2)c1` is higher in “% Inhibition” value: -16% for the first, -14% for the second.

Compared with `Cc1ccc(OCC(=O)NC2CCOCC2)c(Cl)c1`, `Cc1cc(=O)c(OCC(=O)Nc2cccnc2)c[nH]1` is higher in “% Inhibition” value: -12% for the first, -7% for the second.

First: Cc1ccc(CCC(=O)N2CCC3(CCNCC3)C2)cc1
Second: Cc1ccc(C(=O)CCN2CCCC[C@@H]2Cn2ccnn2)cc1
The “% Inhibition” value of the first is lower: -7% for the first, 5% for the second.

Compared with `CCOC1CC(NC(=O)c2csnn2)C12CCCC2` (centres undefined), `CC(=O)Nc1nc(C)c(S(=O)(=O)N2CCC(C)CC2)s1` is lower in “% Inhibition” value: 3% for the first, -14% for the second.

First: Cc1ccc(S(=O)(=O)NC[C@H]2O[C@@H](CO)[C@@H](O)[C@H]2N2CCN(c3cccc(C(F)(F)F)c3)CC2)cc1
Second: COc1ccc(-c2nc3cc(C)ccc3cc2CN2CCC[C@H]2C(N)=O)cc1
The “% Inhibition” value of the first is higher: -9% for the first, -24% for the second.

Compared with `O=C(Nc1ccc2[nH]c(=O)[nH]c2c1)C1CC2C=CC1C2` (centres undefined), `NC(=O)[C@@H]1C[C@@H](F)CN1S(=O)(=O)c1cc(Cl)sc1Cl` is higher in “% Inhibition” value: -4% for the first, -3% for the second.

Going from `C[C@@H](C1CC1)n1cc(NC(=O)N2CCC(c3ccn(C)n3)CC2)cn1` to `Cn1ccc(NC(=O)CN2CCC3(CCC(=O)N(C4CCCC4)C3)CC2)n1`, the Z score falls from 0.01 to -0.2.

Compared with `Cc1cc(Br)cnc1-c1noc([C@@H](C)c2cnn(C)c2)n1`, `Cc1ccc2ncc(-c3noc([C@H]4CCOC4)n3)n2c1` is higher in Z score: 1.67 for the first, 2.87 for the second.

Going from `O=C1CCCN1CCc1nc(Cc2cccs2)no1` to `COc1ccc(C(=O)N2CCC3(CCC(=O)N(Cc4ccccn4)C3)CC2)o1`, the Z score falls from 2.51 to 1.24.

Compared with `CC(=O)Nc1c(C)ccc(NC(=O)c2cnc(C3CC3)s2)c1C`, `Cc1cc(C)c(N2CC[C@H](Nc3cnn(CC(=O)NCCO)c3)C2=O)c(C)c1` is lower in Z score: 2.12 for the first, 1.51 for the second.

Going from `Cc1ccc(CNC(=O)[C@H]2CCCN(c3nc4c(s3)c(C)nn4-c3ccc(C)cc3)C2)cc1` to `Cc1ccc(CNC(=O)[C@]2(C)Cn3cnc(C(=O)NCc4ccco4)c3C(=O)N2C2CC2)cc1`, the Z score rises from -0.91 to 2.4.

Going from `CC(c1nc(C2CC2)no1)N1CCC(N(C)C(=O)OC(C)(C)C)C1` (centres undefined) to `COc1ccccc1CNC(=O)CN1C[C@@H]2CC[C@H]1CN(C(=O)N(C)C)C2`, the Z score rises from 0.88 to 1.07.

First: C[C@@H](c1nccs1)N(C)C(=O)CCc1c[nH]c2ccccc12
Second: CC(C)C[C@H](NC(=O)Nc1ccccc1)c1nnc2ccccn12
The Z score of the first is lower: -0.17 for the first, 0.01 for the second.

Going from `COc1cc(NC2CCN(C(=O)CCc3c(C)nn(C)c3C)CC2)cc(OC)c1` to `O=C(CCc1cncc(F)c1)N1CCN(C2CC2)CC1`, the Z score falls from 1.52 to 1.19.

Going from `Cc1ccsc1CN(C)Cc1cc(C#CCO)cs1` to `Cc1ccsc1CCNC(=O)N1CCNC(=O)C1`, the Z score rises from -1.15 to 1.45.

First: Cc1ccc(N(C)Cc2cnn(-c3ccccc3)c2)nn1
Second: CCCN(CC(=O)N(Cc1ccccc1)Cc1ccc(C)o1)C(=O)c1ccco1
The Z score of the first is higher: 0.6 for the first, 0.45 for the second.

First: O=C(CCc1cc(O)no1)ON1C(=O)CCC1=O
Second: Cc1cc(C(=O)CN2C(=O)N[C@]3(CCOC3)C2=O)c(C)[nH]1
The Z score of the first is higher: 2.02 for the first, 0.44 for the second.

First: Cc1cc(C#N)nc(N2CCN(C(=O)c3cscn3)[C@@H](C)C2)n1
Second: Cn1ncc2c(N)nc(N3CCCN(S(C)(=O)=O)CC3)nc21
The Z score of the first is lower: 0.44 for the first, 2.04 for the second.

Compared with `COc1ccc(CCN(Cc2nc(C(=O)N3CCN(c4ccccc4C)CC3)cs2)Cc2ccccc2F)cc1OC`, `Cc1ccccc1OCCNC(=O)c1ccc(CN2CCOCC2)cc1` is higher in Z score: 0.01 for the first, 0.85 for the second.

Going from `CC(C)(C)c1ccc(NC(=O)N2CCCN(CC(F)F)CC2)nn1` to `Cc1ccc(C(=O)NC[C@@H]2CCCN3CCCC[C@H]23)n1C(F)F`, the Z score rises from -0.27 to 0.92.

First: O=C(Nc1cc(F)ccc1Cl)N1C[C@H]2C[C@@H](C1)[C@@H]1CCCC(=O)N1C2
Second: O=C(Cc1c(F)cccc1Cl)N1CCc2n[nH]c(=O)n2CC1
The Z score of the first is higher: -0.07 for the first, -0.87 for the second.

First: O[C@@H](Cn1nnc2c1CCCC2)c1cccc(Br)c1
Second: O=C(NC(Cc1ccncc1)[C@H]1C[C@@H](O)C1)c1csc2c1CCCC2 (some centres undefined)
The Z score of the first is higher: 1.19 for the first, 0.24 for the second.

First: CCCCN(Cc1cccn1Cc1ccc(Br)cc1)C(=O)CN(CC(C)C)C(=O)Nc1ccccc1CC
Second: Cc1ccc(N(C(=O)c2cccc(Br)c2)C2(C(=O)Nc3c(C)cccc3C)CCCC2)cc1
The Z score of the first is higher: 0.97 for the first, -1.03 for the second.

First: Cc1cccc2cc(C(=O)N[C@H]3CC[C@@H](N4CCN(C)CC4)CC3)sc12
Second: N#Cc1c(F)cccc1N1CCC(CC(=O)N2CCCC2)CC1
The Z score of the first is higher: 1.44 for the first, 0.77 for the second.

First: OCc1nc(NCc2ccc3c(c2)OCCO3)ccc1Cl
Second: COc1nc(N2CCN(c3ccc(Cl)cc3)CC2)ncc1C(=O)NCCN1CCOCC1
The Z score of the first is lower: 0.68 for the first, 1.31 for the second.

Going from `CCn1nc(C)c(CCN(C)c2ccc(C(=O)O)cc2NS(=O)(=O)c2c(C)cc(C)cc2C)c1C` to `CC[C@H](C)NC(=O)CN1CCN(C(=O)c2c(O)nc3ccccc3c2C)CC1`, the Z score falls from 1.12 to -0.12.

First: Cc1ccc(NC[C@H]2CCN(Cc3nc(C)c(C)o3)C2)nc1
Second: CC(C)(O)C#Cc1cccc(C(=O)NC[C@H]2CCN(Cc3ccccc3F)C2)c1
The Z score of the first is higher: 2.25 for the first, 1.45 for the second.

First: Cc1ccc(OCC(=O)NC2CCOCC2)c(Cl)c1
Second: Cc1cc(=O)c(OCC(=O)Nc2cccnc2)c[nH]1
The Z score of the first is higher: 1.36 for the first, 0.93 for the second.

Going from `Cc1ccc(CCC(=O)N2CCC3(CCNCC3)C2)cc1` to `Cc1ccc(C(=O)CCN2CCCC[C@@H]2Cn2ccnn2)cc1`, the Z score falls from 1.29 to -0.69.

Compared with `CCOC1CC(NC(=O)c2csnn2)C12CCCC2` (centres undefined), `CC(=O)Nc1nc(C)c(S(=O)(=O)N2CCC(C)CC2)s1` is higher in Z score: -0.43 for the first, 1.52 for the second.

Compared with `Cc1ccc(S(=O)(=O)NC[C@H]2O[C@@H](CO)[C@@H](O)[C@H]2N2CCN(c3cccc(C(F)(F)F)c3)CC2)cc1`, `COc1ccc(-c2nc3cc(C)ccc3cc2CN2CCC[C@H]2C(N)=O)cc1` is higher in Z score: 1.21 for the first, 2.81 for the second.

Compared with `O=C(Nc1ccc2[nH]c(=O)[nH]c2c1)C1CC2C=CC1C2` (centres undefined), `NC(=O)[C@@H]1C[C@@H](F)CN1S(=O)(=O)c1cc(Cl)sc1Cl` is lower in Z score: 0.67 for the first, 0.33 for the second.
